The source of these data is the supplement of paper PMC10126150.

Sequences with one replicate were seen in a single cluster, so their values are uncertain.

This series has as its system ATP. Description: switch fluorescence ratio, 500 uM ATP over buffer (Cy3 cluster intensity, sum of 5 cycles each) (fold (ratio)); higher = stronger signal-on switching upon ATP binding; sequences stand for … in TCGTCGGCAGCGTCAGATGTGTATAAGAGACAGTTTTTTTTTTTTTTTTTTTTTTTTT…TC. Conditions: aptamer strand: ATP DNA aptamer (quencher-CACCTGGGGGAGTATTGCGGAGGAAGG + anchor), 100 nM annealed; ATP concentration: 500 uM; one replicate. The method, boiled down: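 The quencher-labelled ATP aptamer, at 100 nM, was annealed to Cy3-labelled switching-strand clusters on a modified Illumina MiSeq flow-cell. The clusters were imaged in selection buffer, then after 15 min with 500 uM ATP at 22 °C, and this buffer/ATP cycle ran five times with NaOH stripping and re-annealing between runs. Per-cluster fluorescence ratios, summed target-cycle over summed buffer-cycle Cy3 intensity, were averaged per switch-domain sequence. Clusters outside 100-1000 RFU were excluded.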
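Further: ATP exposure 15 min at 22 °C before imaging.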

In the case of ACCGGTTCTC, the switch fluorescence ratio stood at 1.05.

Consider GCGGGGAAAG, for which the switch fluorescence ratio worked out at 1.02.

With TGAGGACGCT, the switch fluorescence ratio was 1.14.

As to GACATATAAA, the switch fluorescence ratio worked out at 1.02.

In the case of CGTGTCCCAC, the switch fluorescence ratio is 1.05.

Turning to GAACAAGGCT, the switch fluorescence ratio is 0.985.

Take ATGATCTCCT: the switch fluorescence ratio turned out to be 0.978.

With TCACACTTTA, the switch fluorescence ratio came to 1.01.

On to CAATGAGGCA, for which the switch fluorescence ratio came out at 0.965.

Regarding TATTTGCGAT, the switch fluorescence ratio came out at 1.04.

In the case of CCCCGAAGTG, the switch fluorescence ratio turned out to be 2.24.

On to GTGGTAAGGT, for which the switch fluorescence ratio is 0.958.

On to TCTTTGTAGG, for which the switch fluorescence ratio worked out at 1.04.

ATTGTGACTA: the switch fluorescence ratio is 0.965.

Turning to CGGGGAAGTA, the switch fluorescence ratio came to 0.967.

With CTCGAGTTAG, the switch fluorescence ratio was determined as 0.927.

As to ATTTGTTTAA, the switch fluorescence ratio came out at 0.998.

Consider ACTCGAGGCG, for which the switch fluorescence ratio was 0.976.

As for TCGGACATTT, the switch fluorescence ratio stood at 1.04.

On to CGTATATGCG, for which the switch fluorescence ratio worked out at 1.06.

Regarding TTACTTTAGA, the switch fluorescence ratio turned out to be 1.02.

For the sequence TTACTGAGCT, the switch fluorescence ratio was determined as 1.06.

GTGCGAAGAG: the switch fluorescence ratio came to 0.981.

As to CAATTTTAT, the switch fluorescence ratio worked out at 0.964.

On to TCGCTGGGCA, for which the switch fluorescence ratio was 0.991.

Regarding AAGACCAGCG, the switch fluorescence ratio was found to be 1.01.

Take GAAAACGAGT: the switch fluorescence ratio was determined as 0.969.

Take TACGGGCAAT: the switch fluorescence ratio stood at 2.74.

As to CAGCGTGTGG, the switch fluorescence ratio was 0.984.

Regarding TGACCCGATA, the switch fluorescence ratio was determined as 1.05.

TACGTTGGCT: the switch fluorescence ratio is 1.02.

Regarding CATATATAAT, the switch fluorescence ratio was 0.958.

Regarding AGCAATATTT, the switch fluorescence ratio stood at 1.96.

As to GGACACATTC, the switch fluorescence ratio came to 1.08.

On to ACCGGCTGGG, for which the switch fluorescence ratio was 0.991.

As for CTATTTTAAA, the switch fluorescence ratio was found to be 0.987.

Regarding ATTAGGGCGT, the switch fluorescence ratio is 1.02.

Take CGGTTCGGTT: the switch fluorescence ratio amounted to 0.998.

For ACGCGATTGA, the switch fluorescence ratio was 1.03.

On to GGGTGTGTGA, for which the switch fluorescence ratio is 1.02.

For GCTAAAATCG, the switch fluorescence ratio worked out at 0.972.

TTAGTATTGA: the switch fluorescence ratio worked out at 0.987.

Take CCTCAAGCT: the switch fluorescence ratio came to 5.18.

Regarding TAGCATAGT, the switch fluorescence ratio is 1.64.

Consider TTCAATTTGT, for which the switch fluorescence ratio came out at 1.

Regarding TGTCAATCG, the switch fluorescence ratio amounted to 0.99.

In the case of TACGCGACC, the switch fluorescence ratio is 1.23.

Regarding ATTCCTGATG, the switch fluorescence ratio came out at 1.01.

For AAGCAGGACC, the switch fluorescence ratio was 1.12.

In the case of CCACTGGAAG, the switch fluorescence ratio worked out at 0.99.

For the sequence GCTCCTCCCG, the switch fluorescence ratio was found to be 1.76.

ACGGTAGAAT: the switch fluorescence ratio amounted to 1.05.

Take GTATTGCCTT: the switch fluorescence ratio is 1.02.

CCAGCCTCTA: the switch fluorescence ratio was 1.

With AGATTGAGGC, the switch fluorescence ratio stood at 1.01.

As for CAGACGGGAC, the switch fluorescence ratio turned out to be 1.69.

With ATGGTGCAAC, the switch fluorescence ratio was determined as 1.01.

As to AAATAGCTT, the switch fluorescence ratio came to 0.982.

As to GAGGTCGATT, the switch fluorescence ratio was determined as 0.983.

Consider ACGTAAGACG, for which the switch fluorescence ratio was 1.12.

For the sequence TACATGCGAC, the switch fluorescence ratio is 1.17.

Regarding TCACGGCCTC, the switch fluorescence ratio came to 1.04.

On to TTGGCTCATG, for which the switch fluorescence ratio is 1.

For GTGGGAAGT, the switch fluorescence ratio was found to be 1.

On to GGTGAAGCAG, for which the switch fluorescence ratio amounted to 1.

For the sequence GTAGGTTAAG, the switch fluorescence ratio came to 1.

Take TTCTATTTTG: the switch fluorescence ratio is 1.

On to TGGGGGCCAG, for which the switch fluorescence ratio was determined as 0.97.

Consider TGTTCGCCAG, for which the switch fluorescence ratio is 0.945.

For CGGCTTCTTA, the switch fluorescence ratio was determined as 0.972.

Turning to ATCATGGGTT, the switch fluorescence ratio was determined as 0.987.

As to ATGTCGCCCG, the switch fluorescence ratio worked out at 0.985.

With TCCAGGTTTT, the switch fluorescence ratio was 1.12.

As for GCGGGCTGTG, the switch fluorescence ratio stood at 0.961.

TAGCAGGGCT: the switch fluorescence ratio stood at 0.975.

On to CGTGTATAAT, for which the switch fluorescence ratio turned out to be 1.02.

As for GGCGTTAGGA, the switch fluorescence ratio worked out at 0.975.

Take TTTCGGTCTT: the switch fluorescence ratio is 0.992.

Consider CAGTTTATAA, for which the switch fluorescence ratio amounted to 1.05.

Consider TACTAATAA, for which the switch fluorescence ratio came to 1.02.

As to AGCTTGAACT, the switch fluorescence ratio came to 1.02.

As to TTAGTGCGCT, the switch fluorescence ratio came to 0.981.

For GCCATAGCCG, the switch fluorescence ratio is 1.09.

Regarding TCTGCGGGGC, the switch fluorescence ratio worked out at 1.03.

With CGCTTGTTGG, the switch fluorescence ratio stood at 0.985.

For the sequence AACGCGTGCG, the switch fluorescence ratio was determined as 1.24.

In the case of GCAGATAGAA, the switch fluorescence ratio was found to be 0.992.

As to TATGGTACGA, the switch fluorescence ratio was found to be 1.01.

For TTCATCGACG, the switch fluorescence ratio worked out at 1.01.

In the case of ATCAAGCGTT, the switch fluorescence ratio turned out to be 0.966.

Take GATGCGATAG: the switch fluorescence ratio amounted to 2.47.

On to ATCATCCCCT, for which the switch fluorescence ratio is 1.

For the sequence CCACATTCT, the switch fluorescence ratio worked out at 0.98.

As to ACGGGTGTCT, the switch fluorescence ratio was found to be 1.05.

For ATTTGATGGT, the switch fluorescence ratio stood at 0.958.

CGAACGATTA: the switch fluorescence ratio is 1.08.

Take GACTAGTAGC: the switch fluorescence ratio turned out to be 0.985.

Consider TTACTTATA, for which the switch fluorescence ratio was 1.04.

For the sequence ATTCGTGGGT, the switch fluorescence ratio came to 0.973.

Turning to AGTTAGTAAT, the switch fluorescence ratio came to 1.

Regarding AGTCCGTTAG, the switch fluorescence ratio worked out at 0.979.

AAGTTCATCA: the switch fluorescence ratio is 1.01.

For GTATTTCGTC, the switch fluorescence ratio was 0.979.

Turning to CAGCTCCTGC, the switch fluorescence ratio is 0.996.

With TGGGTGCGAA, the switch fluorescence ratio turned out to be 0.986.

Regarding ACGTTTCCGC, the switch fluorescence ratio came to 1.24.

On to CGGCTTGATG, for which the switch fluorescence ratio was 1.02.

TACTCATCC: the switch fluorescence ratio was 1.03.

As to CAAGCCAAAT, the switch fluorescence ratio came out at 1.03.

As for ATGGGGCAAG, the switch fluorescence ratio was determined as 1.01.

Take ACCGGAATTT: the switch fluorescence ratio came out at 1.18.

Regarding GCCAGGTTGC, the switch fluorescence ratio is 1.22.

On to TATACTTGGG, for which the switch fluorescence ratio came out at 0.977.

For the sequence GATCCATCAT, the switch fluorescence ratio was found to be 1.

Turning to GAGGGTTTAA, the switch fluorescence ratio amounted to 0.967.

With GTGCGAGACG, the switch fluorescence ratio came to 0.968.

As for AACAGCTAGG, the switch fluorescence ratio was determined as 1.

As for CATGGAGTTT, the switch fluorescence ratio is 1.02.

As for CCCGGGCTGG, the switch fluorescence ratio was found to be 1.03.

Regarding CTTAGAGGTA, the switch fluorescence ratio amounted to 0.937.
